Data published in patent US20250270341A1 (Alector, published 2025).
Values belong to the binder of their own block, whether it stands above or below them.

Assays:
Test in all cases: FACS, 5 ug/ml
[1] = target: T1, human CD98hc endogenously expressed on HCMEC/D3 cells (human)
T1 construct: human brain endothelial cell line
T1 chain: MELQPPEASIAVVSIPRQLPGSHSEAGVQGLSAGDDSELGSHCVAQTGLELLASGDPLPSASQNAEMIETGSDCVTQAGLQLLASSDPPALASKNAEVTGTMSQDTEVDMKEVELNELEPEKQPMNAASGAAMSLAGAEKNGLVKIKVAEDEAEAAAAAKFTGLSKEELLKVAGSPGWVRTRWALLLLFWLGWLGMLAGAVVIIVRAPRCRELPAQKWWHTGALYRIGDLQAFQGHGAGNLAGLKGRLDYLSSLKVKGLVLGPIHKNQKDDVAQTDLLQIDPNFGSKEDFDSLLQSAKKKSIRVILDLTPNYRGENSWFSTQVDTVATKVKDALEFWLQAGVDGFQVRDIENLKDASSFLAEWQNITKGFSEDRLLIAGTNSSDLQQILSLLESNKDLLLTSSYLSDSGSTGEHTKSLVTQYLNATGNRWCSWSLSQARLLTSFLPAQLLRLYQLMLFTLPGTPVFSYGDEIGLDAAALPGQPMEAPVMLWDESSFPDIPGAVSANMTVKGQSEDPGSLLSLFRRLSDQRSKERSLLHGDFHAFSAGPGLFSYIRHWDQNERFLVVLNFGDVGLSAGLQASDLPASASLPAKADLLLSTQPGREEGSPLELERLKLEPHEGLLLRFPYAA
Experimental: (§1) To determine binding retention of 2+1 anti-CD98hc bispecific antibodies by FACS, antibodies were evaluated for binding to HCMEC/D3 cells (a cell line derived from human brain endothelial cells), overexpressing human and mouse CD98hc CHO cell lines, and parental CHO cells for non-specific binding. Cells were seeded in tissue culture plates (50,000 cells/well) and washed and resuspended in FACS buffer (PBS+2% BSA+1 mM EDTA). The 2+1 anti-CD98hc bispecific antibodies were then incubated with cells (5 μg/ml, 1 hr, on ice) and washed twice with FACS buffer. Cells were then incubated with allophycocyanin conjugated anti-mouse secondary antibody (Jackson Immunoresearch) (1:1000, 30 min, on ice) and then washed twice with FACS buffer. Next, cells were resuspended in FACS buffer supplemented with 0.5% propidium iodide (Thermo Fisher). Anti-CD98hc binding was then analyzed on the iQue flow cytometer (IntelliCyt) by measuring the Mean Fluorescent Intensity (MFI). FACS data are summarized below in Table 17, shown as MFI fold-change relative to isotype hIgG1 control.

[2] = target: T2, Full length mouse CD98hc on CHO cells (mouse, UniProt P10852 1-526)
T2 construct: CHO cells stably overexpressing it; also called CHO-mouse CD98hc; CHO-mCD98hc
T2 sequence: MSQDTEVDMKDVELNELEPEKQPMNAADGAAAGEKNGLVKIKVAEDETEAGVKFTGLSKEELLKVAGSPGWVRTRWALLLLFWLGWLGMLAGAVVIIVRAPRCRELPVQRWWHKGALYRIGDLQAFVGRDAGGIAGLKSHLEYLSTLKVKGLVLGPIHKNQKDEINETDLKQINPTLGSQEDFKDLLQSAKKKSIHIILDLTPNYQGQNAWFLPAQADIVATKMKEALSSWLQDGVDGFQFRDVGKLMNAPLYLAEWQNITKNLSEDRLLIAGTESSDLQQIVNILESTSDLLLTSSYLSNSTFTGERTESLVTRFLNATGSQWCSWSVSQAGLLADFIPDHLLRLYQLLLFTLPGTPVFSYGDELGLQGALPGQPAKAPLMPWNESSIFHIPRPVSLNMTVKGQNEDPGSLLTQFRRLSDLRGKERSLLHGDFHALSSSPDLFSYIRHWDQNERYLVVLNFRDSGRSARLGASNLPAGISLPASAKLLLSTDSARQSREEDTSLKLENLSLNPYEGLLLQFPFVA
Experimental: as §1

[3] = target: T3, Full length human CD98hc on CHO cells (human)
T3 construct: CHO cells stably overexpressing it; also called CHO-human CD98hc; CHO-huCD98hc
T3 chain: T1 chain
Experimental: as §1

B1: CD98hc.03.002 (2+1 bispecific antibody) (bispecific antibody)
heavy 1: EVRLLESGGGLVQPGGSLRLSCAASGFTFSNYAMGWVRQAPGKGLEWVSAISGSGGSTYYADSVKGRFTTSRDDSKNALYLQMNSLRAEDTAVYYCARGGPGWYAADVWGQGTTVTVSSASTKGPSVFPLAPSSKSTSGGTAALGCLVKDYFPEPVTVSWNSGALTSGVHTFPAVLQSSGLYSLSSVVTVPSSSLGTQTYICNVNHKPSNTKVDKKV[here human IgG1 Fc with changes without letters]GGGGSGGGGSGGGGSDVQLVESGGGLVQPGGSRKLSCAASGFTFSTFGMHWVRQAPEKGLEWVAYISGGSTNIYYADTVKGRFTISRDNPKNTLFLQMTSLRSEDTAMYYCARETTLLATNFDYWGQGTTLTVSSGGSEGKSSGSGSESKSTGGSDIQMTQTTSSLSASLGDRVTISCRASQDISNYLNWYQQKPDGTVKLLIYYTSRLHSGVPSRFSGSGSGTDYSLTISNLEQEDIATYFCQQGSTLPRTFGGGTKLEIK
heavy 2: EVRLLESGGGLVQPGGSLRLSCAASGFTFSNYAMGWVRQAPGKGLEWVSAISGSGGSTYYADSVKGRFTTSRDDSKNALYLQMNSLRAEDTAVYYCARGGPGWYAADVWGQGTTVTVSS[here human IgG1 constant region with changes without letters]
light: DIQMTQSPSSLSASVGDRVTITCRASQSISSYLNWYQQKPGKAPKLLIYAASSLQSGVPSRFSGSGSGTDFTLTISSLQPEDFATYYCQQADLPAFAFGGGTKVEIKRTVAAPSVFIFPPSDEQLKSGTASVVCLLNNFYPREAKVQWKVDNALQSGNSQESVTEQDSKDSTYSLSSTLTLSKADYEKHKVYACEVTHQGLSSPVTKSFNRGEC
MFI fold-change relative to isotype hIgG1 [1]: 14.5
MFI fold-change relative to isotype hIgG1 [2]: 0.6
MFI fold-change relative to isotype hIgG1 [3]: 4.7

B4: CD98hc.03.010 (2+1 bispecific antibody) (bispecific antibody)
heavy 1: EVRLLESGGGLVQPGGSLRLSCAASGFTFSNYAMGWVRQAPGKGLEWVSAISGSGGSTYYADSVKGRFTTSRDDSKNALYLQMNSLRAEDTAVYYCARGGPGWYAADVWGQGTTVTVSSASTKGPSVFPLAPSSKSTSGGTAALGCLVKDYFPEPVTVSWNSGALTSGVHTFPAVLQSSGLYSLSSVVTVPSSSLGTQTYICNVNHKPSNTKVDKKV[here human IgG1 Fc with changes without letters]GGGGSGGGGSGGGGSEVQLQQSGTELVKPGASVKLSCTASGLDIKDTYLHWVKQRPEQGLEWIGKIDPANGNTKYNPKFQGKATITADTSSNTAYLQLSSLTSEDTAVHYCTTPYYSGSSYGDYWGQGTTLTVSSGGSEGKSSGSGSESKSTGGSQIVLTQSPAIMSASPGEKVTLTCSASSSVSSSYLYWYQQKPGSSPKLWIYSTSNLASGVPARFSGSGSGTSYSLTISSMEAEDAASYFCHQWSRYPLTFGAGTKLELK
heavy 2: EVRLLESGGGLVQPGGSLRLSCAASGFTFSNYAMGWVRQAPGKGLEWVSAISGSGGSTYYADSVKGRFTTSRDDSKNALYLQMNSLRAEDTAVYYCARGGPGWYAADVWGQGTTVTVSS[here human IgG1 constant region with changes without letters]
light: B1 light
MFI fold-change relative to isotype hIgG1 [1]: 6.9
MFI fold-change relative to isotype hIgG1 [2]: 1.2
MFI fold-change relative to isotype hIgG1 [3]: 2.8

B5: CD98hc.03.004 (2+1 bispecific antibody) (bispecific antibody)
heavy 1: EVRLLESGGGLVQPGGSLRLSCAASGFTFSNYAMGWVRQAPGKGLEWVSAISGSGGSTYYADSVKGRFTTSRDDSKNALYLQMNSLRAEDTAVYYCARGGPGWYAADVWGQGTTVTVSSASTKGPSVFPLAPSSKSTSGGTAALGCLVKDYFPEPVTVSWNSGALTSGVHTFPAVLQSSGLYSLSSVVTVPSSSLGTQTYICNVNHKPSNTKVDKKV[here human IgG1 Fc with changes without letters]GGGGSGGGGSGGGGSDVQLQESGPGLVKPSQSLSLTCTVTGYSITNNYAWNWIRRFPGNKLEWMAYISYSGYTSYNPSLKSRISITRDTSKNQFFLQLNSVTTEDTATYYCTGYFYYYGGGSFDYWGQGTTLTVSSGGSEGKSSGSGSESKSTGGSQAVVTQESALTTSPGETVTLTCRSSTGAVTTSNFANWVQEKPDHLFTGLIRGSNNRAPGVPARFSGSLIGDKAALTITGARTEDEAIYFCALWYSDHWVFGGGTKLTVL
heavy 2: EVRLLESGGGLVQPGGSLRLSCAASGFTFSNYAMGWVRQAPGKGLEWVSAISGSGGSTYYADSVKGRFTTSRDDSKNALYLQMNSLRAEDTAVYYCARGGPGWYAADVWGQGTTVTVSS[here human IgG1 constant region with changes without letters]
light: B1 light
MFI fold-change relative to isotype hIgG1 [1]: 128
MFI fold-change relative to isotype hIgG1 [2]: 1
MFI fold-change relative to isotype hIgG1 [3]: 43.7

B6: CD98hc.03.031 (2+1 bispecific antibody) (bispecific antibody)
heavy 1: EVRLLESGGGLVQPGGSLRLSCAASGFTFSNYAMGWVRQAPGKGLEWVSAISGSGGSTYYADSVKGRFTTSRDDSKNALYLQMNSLRAEDTAVYYCARGGPGWYAADVWGQGTTVTVSSASTKGPSVFPLAPSSKSTSGGTAALGCLVKDYFPEPVTVSWNSGALTSGVHTFPAVLQSSGLYSLSSVVTVPSSSLGTQTYICNVNHKPSNTKVDKKV[here human IgG1 Fc with changes without letters]GGGGSGGGGSGGGGSQVQLQQSGAELVRPGVSVKISCKASGYTFTDYAMHWVKQSHAKSLEWIGVISTYYGDTTYNQKFKDKATMTVDKSSSTAYLELARLTSEDSAIYYCARVWLLSYAMDNWGQGTSVTVSSGGSEGKSSGSGSESKSTGGSDIVMTQSQRFMSTSVGDGVRITCKASQNVRTAVAWYQQKPGQSPKALINLAPNRHTGVPDRFTARGSGTDFTLTISNVQSEDLADYFCLQHWNYPLTFGAGTKLELK
heavy 2: EVRLLESGGGLVQPGGSLRLSCAASGFTFSNYAMGWVRQAPGKGLEWVSAISGSGGSTYYADSVKGRFTTSRDDSKNALYLQMNSLRAEDTAVYYCARGGPGWYAADVWGQGTTVTVSS[here human IgG1 constant region with changes without letters]
light: B1 light
MFI fold-change relative to isotype hIgG1 [1]: 59.2
MFI fold-change relative to isotype hIgG1 [2]: 1.4
MFI fold-change relative to isotype hIgG1 [3]: 17.6

More lines, now with the values ahead:

MFI fold-change relative to isotype hIgG1 [1]: 5.3
MFI fold-change relative to isotype hIgG1 [2]: 0.5
MFI fold-change relative to isotype hIgG1 [3]: 3
B2: CD98hc.04.003 (2+1 bispecific antibody) (bispecific antibody)
heavy 1: EVRLLESGGGLVQPGGSLRLSCAASGFTFSNYAMGWVRQAPGKGLEWVSAISGSGGSTYYADSVKGRFTTSRDDSKNALYLQMNSLRAEDTAVYYCARGGPGWYAADVWGQGTTVTVSSASTKGPSVFPLAPSSKSTSGGTAALGCLVKDYFPEPVTVSWNSGALTSGVHTFPAVLQSSGLYSLSSVVTVPSSSLGTQTYICNVNHKPSNTKVDKKV[here human IgG1 Fc with changes without letters]GGGGSGGGGSGGGGSQVQLQQSGAELAKPGASLKMSCKASGYTFTDYYIHWVKQRPGQDLEWIGYINPNSAYTDSNQKFKDKATLTADKSSNTAYMQLSSLTSEDSAVYYCARKGHFYAPSFAYWGQGTLVTVSAGGSEGKSSGSGSESKSTGGSDIQMTQTTSSLSASLGDRVTISCRASQDISNYLNWYQQKPDGTVKLLIYYTSRLHSGVPSRFSGSGSGADYSLTISNLQQEDIATYFCQQGDTLPYTFGGGTKLEIE
heavy 2: EVRLLESGGGLVQPGGSLRLSCAASGFTFSNYAMGWVRQAPGKGLEWVSAISGSGGSTYYADSVKGRFTTSRDDSKNALYLQMNSLRAEDTAVYYCARGGPGWYAADVWGQGTTVTVSS[here human IgG1 constant region with changes without letters]
light: B1 light

MFI fold-change relative to isotype hIgG1 [1]: 26.3
MFI fold-change relative to isotype hIgG1 [3]: 11.8
B3: CD98hc.04.058 (2+1 bispecific antibody) (bispecific antibody)
heavy 1: EVRLLESGGGLVQPGGSLRLSCAASGFTFSNYAMGWVRQAPGKGLEWVSAISGSGGSTYYADSVKGRFTTSRDDSKNALYLQMNSLRAEDTAVYYCARGGPGWYAADVWGQGTTVTVSSASTKGPSVFPLAPSSKSTSGGTAALGCLVKDYFPEPVTVSWNSGALTSGVHTFPAVLQSSGLYSLSSVVTVPSSSLGTQTYICNVNHKPSNTKVDKKV[here human IgG1 Fc with changes without letters]GGGGSGGGGSGGGGSQVQLQQSGAELVRPGVSVKISCKASGYTFTDHTMHWVKQSHARSLEWIGVISTYFGDASYNPKFKGKATMTVDKSSNTAYMELARLTSEDSAIYYCARVGGRLRLGYYFDYWGQGTTLTVSSGGSEGKSSGSGSESKSTGGSNIMMTQSPSSLAVSAGEKVTMNCKSSQTVLYSSNQKNYLAWYQQKPGQSPKLLIYWASTRESGVPDRFTGSGSGTDFTLTISSVQVEDLAVYYCHQYLSSYTFGGGTKLEIK
heavy 2: EVRLLESGGGLVQPGGSLRLSCAASGFTFSNYAMGWVRQAPGKGLEWVSAISGSGGSTYYADSVKGRFTTSRDDSKNALYLQMNSLRAEDTAVYYCARGGPGWYAADVWGQGTTVTVSS[here human IgG1 constant region with changes without letters]
light: B1 light
